Reference: PubChem BioAssay AID902 (National Center for Advancing Translational Sciences (NCATS), 2007)
Values joined by “and” are separate entries in the source; they are usually repeats but may differ in a detail not shown here. Identical values can stand only once. Out of some 130,000 compounds screened, about 1,900 (1.5%) were called active. The shares of active, inactive and inconclusive entries below differ from those in the screen. Calls follow the shape of the dose curve; as a rule, active = well fitted cell-killing curve with a large enough effect; inconclusive = small, poorly fitted or top-dose-only effect; inactive = no such curve, though single readings can be large or run the other way. Potencies beside an inconclusive call are fits to weak or partial responses and may not hold up.

Assay: qHTS Screen for Compounds that Selectively Target Cancer Cells with p53 Mutations: Cytotoxicity of p53ts Cells at the Nonpermissive Temperature; also: nearly all actives have a fitted effect of over 55% in size
Conditions: H1299-p53A138V viability at 39C, ATP luminescence, 24 h; activity change, negative = cell killing: at 46.1 µM (top of the series)
% is scaled to controls: 0 for no effect and ±100 for the full control effect; potency is read from the fitted curve at half-maximal effect; tags tell the direction and shape of the fitted curve.

| SMILES | Potency | activity change, negative = cell killing |
| --- | --- | --- |
| O=C(O)c1ccc(N[C@H](c2ccccc2)c2ccc3cccnc3c2O)cc1 | inconclusive: 3.98 µM [cytotoxic, single point] | – |
| COc1ccc(NC(=O)c2ccco2)cc1NC(=O)COc1cc(C)ccc1C(C)C | inconclusive: 15.8 µM [cytotoxic, single point] | – |
| COc1ccc(Cl)cc1S(=O)(=O)N1CCC(c2ccncc2)CC1 | inconclusive: 1.26 µM [cytotoxic, full curve] | – |
| CC(C)CNC(=O)O | – | inactive: 1.3% [at 9.22 µM] |
| COc1ccc(-c2nnc(SCC(=O)Nc3ccc(C)c(Cl)c3)nc2-c2ccc(OC)c(OC)c2)cc1OC | inconclusive: 25.1 µM [cytotoxic, single point] | – |
| O=C(CN1CCN(c2nc(-c3ccc(Cl)cc3)cs2)CC1)NCc1ccco1 | inactive | – |
| COc1cccc(CNC(=O)CSc2nnc(C)c3c(C)n(-c4ccccc4)nc23)c1 | inconclusive: 25.1 µM [cytotoxic, single point] | – |
| CCC(CC)C(=O)N1CCc2cc(OC)c(OC)cc2C1COc1ccc(F)cc1 (stereo not drawn) | inconclusive: 25.1 µM [cytotoxic, partial curve, poor fit] | – |
| CC(=O)Nc1ccc(NC(=O)c2ncoc2-c2ccco2)cc1 | inconclusive: 12.6 µM [cytotoxic, partial curve] | – |
| CCCCN(C)CCNC(=O)c1cc(-c2ccc(Cl)s2)nc2ccccc12 | active: 12.6 µM | – |
| CCOc1ccc(-c2[nH]ncc2Oc2ccccc2OCC)c(O)c1 | inconclusive: 31.6 µM [cytotoxic, single point] | – |
| Oc1c(CN2CCCCC2)cc(COCc2ccccc2)c2cccnc12 | inactive | – |
| COc1ccc2c(c1)NC(c1ccc(F)cc1)=NC(c1ccc(F)cc1)=N2 | inconclusive: 0.0158 µM [cytotoxic, full curve, poor fit] | – |
| CCN(C(=O)Cc1cccs1)c1nnc(-c2cccnc2)s1 | inactive | – |
| Cc1noc(C)c1-c1cncnc1N1CCN(C)CC1 | inactive | – |
| COc1ccc(S(=O)(=O)NCCc2sc(-c3ccccc3)nc2C)cc1OC | inconclusive: 0.0126 µM [cytotoxic, full curve, poor fit] | – |
| O=C(CC1(O)C(=O)N(Cc2ccccc2)c2ccccc21)c1ccncc1 (stereo not drawn) | inactive | – |
| CCN1CCc2nc(NC(=O)c3ccc4c(c3)OCCO4)sc2C1 | inconclusive: 12.6 µM [cytotoxic, partial curve] | – |
| CCC(=O)NCCc1sc2nc(-c3ccc(OC)cc3)nn2c1C | inconclusive: 10 µM [cytotoxic, partial curve] | – |
| Cc1cc(NC(=O)CCCC(=O)NCc2cccs2)no1 | inconclusive: 12.6 µM [cytotoxic, single point] | – |
| CCCS(=O)(=O)Nc1cccc(-c2cn3ccsc3n2)c1 | inconclusive: 11.2 µM [cytotoxic, partial curve, poor fit] | – |
| COc1ccc(OC)c(NC(=O)c2nnn(CC(=O)Nc3ccc(C(C)C)cc3)c2N)c1 | inconclusive: 1.41 µM [cytotoxic, full curve, poor fit] | – |
| Cc1ccc(N2C(=O)CSC23C(=O)N(CC(=O)NCCc2ccccc2)c2ccccc23)cc1 (stereo not drawn) | inconclusive: 0.0251 µM [cytotoxic, full curve] | – |

| SMILES | Potency | activity change, negative = cell killing |
| --- | --- | --- |
| Cc1ccnc(NC(=O)CCC2CCCCC2)c1 | active: 12.6 µM | – |
| COc1cccc(CNCc2c(C(=O)O)n(Cc3ccc(C)cc3)c3cc(C)ccc23)c1OC | inconclusive: 31.6 µM [cytotoxic, single point] | – |
| COc1ccccc1CN1CCC(CNC(=O)c2cnn(-c3cccc(Cl)c3)c2C2CCN(C(=O)OC(C)(C)C)CC2)CC1 | inconclusive: 31.6 µM [cytotoxic, single point] | – |
| Cc1ccc(-n2ncc3c(NC4CCCCC4)ncnc32)cc1C | active: 12.6 µM | – |
| O=C(c1ccccc1)n1nc(-c2ccc(Cl)cc2)nc1NCc1ccco1 | inconclusive: 15.8 µM [cytotoxic, single point] | – |
| CC(C)c1c(O)ccc2c1CCC1[C@@](C)(C=O)CCC[C@@]21C (stereo partly drawn) | inconclusive: 31.6 µM [cytotoxic, single point] | – |
| Cc1cccc(NC(=O)CN2C(=O)C(c3ccc(F)cc3)=NC23CCCCCC3)c1C | inconclusive: 0.158 µM [cytotoxic, full curve] | – |
| COc1cccc(-c2cc(NCc3cccnc3)ncn2)c1 | inconclusive: 25.1 µM [cytotoxic, single point] | – |
| COc1ccc2ncc3c(-c4ccc(C)c(C)c4)nn(CC(=O)Nc4ccccc4)c3c2c1 | inconclusive: 12.6 µM [cytotoxic, single point] | – |
| O=C(NCCc1ccccc1Cl)c1cc2ccccn2n1 | inconclusive: 15.8 µM [cytotoxic, partial curve] | – |
| CCN(CC)CCCC(C)n1c(-c2ccccc2)nc2c(NCc3ccccc3)nc(C)nc21 (stereo not drawn) | inactive | – |
| O=C(NCCO)c1ccc(-c2nnc(Nc3ccc(OC(F)(F)Cl)cc3)c3ccccc23)cc1 | inconclusive: 20 µM [cytotoxic, single point] | – |
| COc1ccc(NC(=O)Cn2c(=O)n(-c3ccc(OC)cc3)c(=O)c3sc4ccccc4c32)cc1 | – | inconclusive: -41.3% [cytotoxic] |
| CCOC(=O)c1cccc(NC(=O)C2=C(C)C(=O)OC23CCCCC3)c1 | inactive | – |
| Cc1ccc(C(C)C)c(OCC(O)CN2CCOCC2)c1 (stereo not drawn) | – | inconclusive: -31.4% [cytotoxic] |
| CCOC(=O)Cc1nnc(NC(=O)C(CC)Sc2nncn2C)s1 (stereo not drawn) | inactive | – |
| COC(=O)CCNC(=O)N1CCN(c2nnc(C)c3c(C)n(-c4ccccc4)nc23)CC1 | inconclusive: 3.16 µM [cytotoxic, partial curve, poor fit] | – |
| Nc1nc(CSc2n[nH]c(-c3ccccc3)n2)nc(Nc2ccccc2)n1 | inactive | – |
| CCOC(=O)C1C(=O)C=C(c2ccc(OC)cc2)CC1c1ccco1 (stereo not drawn) | inconclusive: 15.8 µM [cytotoxic, partial curve] | – |
| O=C(COc1ccccc1)Nc1nc2ccccc2[nH]1 | inconclusive: 15.8 µM [cytotoxic, partial curve] | – |
| COc1cccc(-c2nc(CS(=O)(=O)CC(=O)Nc3ccc(C)c(Cl)c3)c(C)o2)c1 | inconclusive: 12.6 µM [cytotoxic, single point] | – |
| Cc1ccc(C(=O)C2CCN(CC(=O)Nc3ccc(N(C)C)cc3)CC2)cc1 | inactive | – |
| CC(/C=N/Nc1nc2ccccc2[nH]1)=C\c1ccccc1 | inconclusive: 14.1 µM [cytotoxic, single point] | – |

| SMILES | Potency | activity change, negative = cell killing |
| --- | --- | --- |
| CCOc1ccc(NC(=O)c2ccc3nc(C(C)C)oc3c2)cc1 | inconclusive: 0.0079 µM [cytotoxic, full curve, poor fit] | – |
| O=C(O)c1ccccc1COc1ccccc1Cl | inconclusive: 12.6 µM [cytotoxic, single point] | – |
| CC(C)(C)c1nnc(N/N=C/c2ccccc2O)n(N)c1=O | inconclusive: 2.24 µM [cytotoxic, full curve] | – |
| CCN1CCN(c2cc(C)c3cc(NC(=O)/C=C/c4ccc(OCCC(C)C)cc4)ccc3n2)CC1 | active: 6.31 µM | – |
| CCOc1ccc(C(=O)NCCc2csc(-c3cccnc3)n2)cc1 | inconclusive: 10 µM [cytotoxic, partial curve] | – |
| CN1CCN(C2(CNC(=O)COc3ccc(C(C)(C)C)cc3)CCCCC2)CC1 | inconclusive: 15.8 µM [cytotoxic, single point] | – |
| CCCCN1C(C(=O)c2ccccc2)=C(OC(C)=O)c2ccccc2S1(=O)=O | inconclusive: 31.6 µM [cytotoxic, single point] | – |
| COc1ccc(C)cc1N(C)C(=O)c1c2c(nc3ccccc13)C(=O)N(C1CCCCC1)C2 | inconclusive: 1.26 µM [cytotoxic, full curve, poor fit] | – |
| COc1ccc(-c2nc3ccc(NS(=O)(=O)c4ccc(Cl)cc4)cc3o2)cc1 | inconclusive: 25.1 µM [cytotoxic, single point] | – |
| COc1ccc(-c2nc3scc(CCNS(=O)(=O)c4ccc(NC(C)=O)cc4)n3n2)cc1 | inconclusive: 6.31 µM [cytotoxic, partial curve, poor fit] | – |
| CCC(C)NC(=O)c1cccc(NC(=O)c2nsc3ccccc23)c1 (stereo not drawn) | inconclusive: 15.8 µM [cytotoxic, partial curve] | – |
| COc1ccc(/C=C/C(=O)Nc2ccccc2C(=O)O)cc1OC | active: 12.6 µM | – |
| CCOc1cccc(C(=O)N(Cc2ccc(CC)cc2)C2CCS(=O)(=O)C2)c1 (stereo not drawn) | inactive | – |
| COc1cccc(CNC(=O)c2cc3c(=O)oc4ccc(C)cc4c3s2)c1 | inconclusive: 10 µM [cytotoxic, single point] | – |
| Oc1ccc(/C=C/c2cc(O)cc(O)c2)cc1 | active: 10 µM and active: 6.31 µM | – |
| CC(=O)C1=C(c2ccc(Cl)cc2)N(C(C)=O)n2c(nnc2C2CCCCC2)S1 | inconclusive: 10 µM [cytotoxic, partial curve] | – |
| Cn1cnc2c(=O)oc3ccc(S(=O)(=O)Nc4ccc(F)cc4)cc3c21 | active: 12.6 µM | – |
| CCOc1ccc(OCC)c(NS(=O)(=O)c2ccc(-c3coc(C)n3)cc2)c1 | inactive | – |
| CN1CCN(c2nc(-c3cccc(NS(C)(=O)=O)c3)nc3ccccc23)CC1 | inactive | – |
| COc1ccc2[nH]c(=O)c(CN(Cc3nnnn3Cc3ccco3)C3CCCCC3)cc2c1 | inactive | – |
| Cc1nc2ccc(S(=O)(=O)N(C)CC(=O)Nc3cccc(C(F)(F)F)c3)cc2s1 | inconclusive: 31.6 µM [cytotoxic, single point] | – |
| CC(C)COc1ccc(C(=O)NCc2ccco2)cc1 | inactive | – |
